For some assays here: At least one read-out could not be matched to a standard name with certainty. Some entries share one result that the patent states for a list of compounds.
What was measured:
[1] = system: hEPO mRNA; assay: hEPO expression after intramuscular administration to mice; assay type: in vivo; settings: relative to MC3 formulation
Experimental: The expression of hEPO and cytokine induction in mice intravenously administered a nanoparticle composition at a dose of 0.5 mpk were measured at 3, 6, and 24 hours. […] The expression of hEPO in mice intramuscularly administered a nanoparticle composition from Table 1B at a dose of 0.01 mpk were measured at 3, 6, and 24 hours.
Blood collection and analysis for hEPO. Blood was collected from mice or rats via the tail vein and hEPO concentrations were determined using a hEPO ELISA assay.

[2] = system: luciferase (Luc) mRNA; assay: Luc expression, whole body bioluminescence after intravenous administration to mice; assay type: in vivo; settings: luciferase, intravenous, relative to MC3 formulation
Experimental: (§1) In order to monitor how effectively various nanoparticle compositions deliver therapeutic and/or prophylactics to targeted cells, different nanoparticle compositions including a particular therapeutic and/or prophylactic (for example, a modified or naturally occurring RNA such as an mRNA) are prepared and administered to rodent populations. Mice are intravenously, intramuscularly, intraarterially, or intratumorally administered a single dose including a nanoparticle composition with a formulation such as those provided in Example 3. In some instances, mice may be made to inhale doses. Dose sizes may range from 0.001 mg/kg to 10 mg/kg, where 10 mg/kg describes a dose including 10 mg of a therapeutic and/or prophylactic in a nanoparticle composition for each 1 kg of body mass of the mouse. A control composition including PBS may also be employed.
Upon administration of nanoparticle compositions to mice, dose delivery profiles, dose responses, and toxicity of particular formulations and doses thereof can be measured by enzyme-linked immunosorbent assays (ELISA), bioluminescent imaging, or other methods. For nanoparticle compositions including mRNA, time courses of protein expression can also be evaluated. Samples collected from the rodents for evaluation may include blood, sera, and tissue (for example, muscle tissue from the site of an intramuscular injection and internal tissue); sample collection may involve sacrifice of the animals.
The efficacy of the nanoparticle compositions presented in Table 1A was evaluated with a bioluminescence study. Formulations were administered intravenously to mice (n=6) at a dosage of 0.5 mg/kg (mpk) and bioluminescence measured at 3, 6, and 24 hour time points. The standard MC3 formulation and, in some instances, a control (e.g., a PBS control) were evaluated for comparison. […] In general, flux decreased as time progressed to less than 10% of the initial flux.
(§2) Whole body and ex vivo organ bioluminescent imaging of mice: CD-1 mice were injected 15 minutes prior to the imaging timepoint intraperitoneally (IP) with 200 μL Xenolight D-luciferin K+ salt, diluted in PBS just prior to use to a concentration of 15 mg/mL. Ex vivo imaging of organs was completed within 25 minutes of luciferin administration. All images were quantified by region of interest for total flux.

[3] = system: luciferase (Luc) mRNA; assay: Luc expression in liver, lung, spleen and femur 6 hours after intravenous administration; assay type: in vivo; settings: mice, i.v., 0.5 mpk, in words
Experimental: The efficacy of the nanoparticle compositions presented in Table 1A was further evaluated by measuring the expression of modified luciferase in the liver, lung, spleen, and femur upon administration of a given composition. Formulations were administered intravenously to mice (n=3) at a dosage of 0.5 mpk and bioluminescence measured after 6 hours. The standard MC3 formulation and a PBS control were also tested. […] Flux in the liver was lowest for compositions including Compounds 58, 59, 137, and 141. Flux in the spleen was highest for compositions including Compounds 4, 7, 33, 34, 48, 53, 108, 129, 130, and 148, and lowest for compositions including Compounds 9, 59, 124, and 141.
as §2

[4] = system: luciferase (Luc) mRNA; assay: Luc expression (total flux) after intramuscular administration; assay type: in vivo, mice; settings: relative to MC3 formulation
Experimental: as §1
Sample formulations including both modified luciferase (Luc) mRNA and H10 mRNA were prepared and administered intramuscularly and the resulting expression and immunogenicity were evaluated simultaneously. Formulations including compounds according to Formula (I), (IA), (IB), (II), (IIa), (IIb), (IIc), (IId), (IIe), (IIf), (IIg), (III), (VI), (VI-a), (VII), (VIII), (VIIa), (VIIIa), (VIIIb), (VIIb-1), (VIIb-2), (VIIb-3), (VIIc), (VIId), (VIIIc), or (VIIId) were prepared and administered at doses of 0.001 and 0.01 mpk (e.g., doses of 0.0005 mpk of a formulation including Luc mRNA and a formulation including H10 mRNA or doses of 0.005 mpk of a formulation including Luc mRNA and a formulation including H10 mRNA).
Sample formulations including modified luciferase (Luc) mRNA prepared and administered intramuscularly and the resulting expression and immunogenicity were evaluated simultaneously. Formulations including compounds according to Formula (I), (IA), (IB), (II), (IIa), (IIb), (IIc), (IId), (IIe), (IIf), (IIg), (III), (VI), (VI-a), (VII), (VIII), (VIIa), (VIIIa), (VIIIb), (VIIb-1), (VIIb-2), (VIIb-3), (VIIc), (VIId), (VIIIc), or (VIIId) were prepared and administered at dose of and 0.01 mpk.

SMILES | Novel lipid/MC3 expression ratio, 6 hr. time point, i.m. hEPO [1] | Novel lipid/MC3 expression ratio, 6 hr. time point, i.v. [2] | Flux in the liver [3] | Novel lipid/MC3 expression ratio, 6 hr. time point, i.m. Luc [4]
CCCCCCCCCOC(=O)CCCCCCCN(CCCCCCCC(=O)OC(CCCCCCCC)CCCCCCCC)CCCNS(C)(=O)=O [Compound 109, Heptadecan-9-yl 8-((3-(methylsulfonamido)propyl)(8-(nonyloxy)-8-oxooctyl)amino)octanoate] | 5.3 | 0.35 | – | –
CCCCCCCCCOC(=O)CCCCCCCN(CCCCCCCC(=O)OC(CCCCCCCC)CCCCCCCC)C(C)CO (centres unmarked) [Compound 157, Heptadecan-9-yl 8-((1-hydroxypropan-2-yl)(8-(nonyloxy)-8-oxooctyl)amino)octanoate] | – | – | comparable to that of MC3 formulations | 0.79
CCCCCCCCCOC(=O)CCCCCCCN(CCCCCCCC(=O)OC(CCCCCCCC)CCCCCCCC)C(CO)CO [Compound 156, Heptadecan-9-yl 8-((1,3-dihydroxypropan-2-yl)(8-(nonyloxy)-8-oxooctyl)amino)octanoate] | – | 0.60 | – | 0.06
CCCCCCCCCOC(=O)CCCCCCCN(CCCCCCCC(=O)OC(CCCCCCCC)CCCCCCCC)CC(O)CO (centres unmarked) [Compound 69, Heptadecan-9-yl 8-((2,3-dihydroxypropyl)(8-(nonyloxy)-8-oxooctyl)amino)octanoate] | – | 0.30 | – | 0.27
CCCCCCCCCOC(=O)CCCCCCCN(CCCCCCCC(=O)OC(CCCCCCCC)CCCCCCCC)CCCNC(=O)OC [Compound 181, Heptadecan-9-yl 8-((3-((methoxycarbonyl)amino)propyl)(8-(nonyloxy)-8-oxooctyl)amino)octanoate] | – | 0.27 | – | 0.97
CCCCCCCCCOC(=O)CCCCCCCN(CCCCCCCC(=O)OC(CCCCCCCC)CCCCCCCC)CCCNC(C)=O [Compound 108, Heptadecan-9-yl 8-((3-acetamidopropyl)(8-(nonyloxy)-8-oxooctyl)amino)octanoate] | 3.7 | 0.40 | – | –
CCCCCCCCCOC(=O)CCCCCCCN(CCCCCCCC(=O)OC(CCCCCCCC)CCCCCCCC)CCCC(=O)NC [Compound 239, Heptadecan-9-yl 8-((4-(methylamino)-4-oxobutyl)(8-(nonyloxy)-8-oxooctyl)amino)octanoate] | – | – | – | 0.01
CCCCCCCCCOC(=O)CCCCCCCN(CCCCCCCC(=O)OC(CCCCCCCC)CCCCCCCC)CCCNc1c(N(C)C)c(=O)c1=O [Compound 169, Heptadecan-9-yl 8-((3-((2-(dimethylamino)-3,4-dioxocyclobut-1-en-1-yl)amino)propyl)(8-(nonyloxy)-8-oxooctyl)amino)octanoate] | – | 0.11 | – | 3.3
CCCCCCCCC(CCCCCCCC)OC(=O)CCCCCCCN(CCO)CCCC(=O)OC(CCCCC)CCCCCCCC (centres unmarked) [Compound 71, Heptadecan-9-yl 8-((2-hydroxyethyl)(4-oxo-4-(tetradecan-6-yloxy)butyl)amino)octanoate] | – | 0.42 | – | 0.08
CCCCCCCCCOC(=O)CCCCCCCN(CCO)CCCCCCCCCC(=O)OC(CCCCCCCC)CCCCCCCC [Compound 23, Heptadecan-9-yl 10-((2-hydroxyethyl)(8-(nonyloxy)-8-oxooctyl)amino) decanoate] | – | 0.04 | – | 0.30
CCCCCCCCCOC(=O)CCCCCCCN(CCCCCCCC(=O)OC(CCCCCCCC)CCCCCCCC)CCCN/C(=C/[N+](=O)[O-])NC [Compound 170, Heptadecan-9-yl (E)-8-((3-((1-(methylamino)-2-nitrovinyl)amino)propyl)(8-(nonyloxy)-8-oxooctyl)amino)octanoate] | – | 0.02 | – | 5.3
CCCCCCCCCOC(=O)CCCCCCCN(CCCCCCCC(=O)OC(CCCCCCCC)CCCCCCCC)CCCN/C(=N/S(C)(=O)=O)N(C)C [Compound 233, Heptadecan-9-yl (Z)-8-((3-(3,3-dimethyl-2-(methylsulfonyl)guanidino)propyl)(8-(nonyloxy)-8-oxooctyl)amino)octanoate] | – | – | – | 0.05
CCCCCCCCCOC(=O)CCCCCCCN(CCCCCCCC(=O)OC(CCCCCCCC)CCCCCCCC)CCCNC(=O)CO [Compound 198, Heptadecan-9-yl 8-((3-(2-hydroxyacetamido)propyl)(8-(nonyloxy)-8-oxooctyl)amino)octanoate] | – | 0 | – | 0.52
CCCCCCCCC(CCCCCCCC)OC(=O)CCCCCCCN(CCO)CCCCCC(=O)OC(CCCCCCCC)C1CC1 (centres unmarked) [Compound 128, Heptadecan-9-yl 8-((6-((1-cyclopropylnonyl)oxy)-6-oxohexyl)(2-hydroxyethyl)amino)octanoate] | – | – | comparable to that of MC3 formulations | 0.99
CCCCCCCCCN(CCCO)CCCCCCCC(=O)OC(CCCCCCCC)CCCCCCCC [Compound 7, Heptadecan-9-yl 8-((3-hydroxypropyl)(nonyl)amino)octanoate] | – | 0.88 | comparable to that of MC3 formulations | 1.10
CCCCCCCCC(C)OC(=O)CCCCCCCN(CCO)CCCCCCCC(=O)OC(CCCCCCCC)CCCCCCCC (centres unmarked) [Compound 48, decan-2-yl 8-((8-(heptadecan-9-yloxy)-8-oxooctyl)(2-hydroxyethyl)amino)octanoate] | – | 10.0 | – | 0.31
CCCCCC/C=C\COC(=O)CCCCCCCN(CCO)CCCCCCCC(=O)OC(CCCCCCCC)CCCCCCCC [Compound 24, Heptadecan-9-yl (Z)-8_((2-hydroxyethyl) (8-(non-2-en-1-yloxy)-8-oxooctyl)amino)octanoate] | – | – | comparable to that of MC3 formulations | 1.10
CCCCCCCCCOC(=O)CCCCCCCN(CCCCCCCC(=O)OC(CCCCCCCC)CCCCCCCC)CCCNc1c(NC)c(=O)c1=O [Compound 182, Heptadecan-9-yl 8-((3-((2-(methylamino)-3,4-dioxocyclobut-1-en-1-yl)amino)propyl)(8-(nonyloxy)-8-oxooctyl)amino)octanoate] | – | 0.66 | – | 6.80
